Measured values as given in article PMC6919601, “Identification of Plasmodium dipeptidyl aminopeptidase allosteric inhibitors by high throughput screening” (PLoS ONE, 2019).
Where “and” joins values, the source holds several entries; their conditions need not be identical. Equal values may be shown once. The campaign covered roughly 110,000 compounds. About 230 (0.21%) showed an effect of 50% or more. This is one part of the list.

Each compound was assayed against DPAP1 (Plasmodium falciparum, UniProt Q8IIJ9) (assay: primary screen, percent inhibition; read by cleavage of a fluorogenic dipeptide substrate; higher = more effect of the substance).
Design: species or system P. falciparum D10 trophozoite lysates; single well
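Further: 30 min substrate incubation versus DMSO and 10 µM JCP410 controls.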

Chain of DPAP1 (Q8IIJ9 whole entry, looked up): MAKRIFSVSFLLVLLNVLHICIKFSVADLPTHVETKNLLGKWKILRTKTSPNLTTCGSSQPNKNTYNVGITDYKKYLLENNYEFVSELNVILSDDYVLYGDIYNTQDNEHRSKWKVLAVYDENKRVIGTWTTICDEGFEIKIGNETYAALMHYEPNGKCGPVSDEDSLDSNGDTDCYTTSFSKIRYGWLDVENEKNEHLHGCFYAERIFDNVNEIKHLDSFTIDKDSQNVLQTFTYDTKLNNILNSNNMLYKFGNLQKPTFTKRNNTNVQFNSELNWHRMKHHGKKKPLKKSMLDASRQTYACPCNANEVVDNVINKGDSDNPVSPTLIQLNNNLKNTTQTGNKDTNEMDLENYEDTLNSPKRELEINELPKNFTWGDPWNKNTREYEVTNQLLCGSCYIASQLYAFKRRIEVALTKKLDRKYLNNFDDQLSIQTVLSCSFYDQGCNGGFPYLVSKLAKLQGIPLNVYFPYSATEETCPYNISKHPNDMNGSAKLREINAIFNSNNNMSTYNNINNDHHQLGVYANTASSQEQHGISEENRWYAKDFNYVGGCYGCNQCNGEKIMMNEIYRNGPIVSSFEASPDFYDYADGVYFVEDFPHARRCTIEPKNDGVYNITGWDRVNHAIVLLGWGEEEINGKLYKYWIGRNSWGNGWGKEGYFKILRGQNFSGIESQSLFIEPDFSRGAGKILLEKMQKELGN

Structure (SMILES) | % Inhibition @ 10 uM
OC(c1ccccc1)(C1CCCCC1)C(CN1CCOCC1)c1ccccc1 (centres unmarked) | -5.92%
CC(=O)c1ccc(NC(=O)c2ccc(C)cc2)cc1 | -7.18%
CCNC(=O)CN(c1ccc(Cl)cc1)S(=O)(=O)c1ccc(C)cc1 | 22.2%
CS(=O)(=O)N(CC(=O)N1CCN(c2cccc(Cl)c2)CC1)c1cc(Cl)ccc1Cl | 16.2%
COC(=O)c1cc(S(=O)(=O)NCCN(Cc2ccco2)C(C)(C)C)c[nH]1 | -4.52%
CC(=O)c1c(C)nc2ccccc2c1N | 2.77%
Cc1c(C(c2ccc(O)cc2)c2c(C)n(C)n(-c3ccccc3)c2=O)c(=O)n(-c2ccccc2)n1C | -6.44%
Cc1ccc(S(=O)(=O)N2C(=O)c3cccc4c(Br)ccc2c34)cc1 | 2.69% and 4.31%
COCCNC(=O)c1ccc(CSc2nc3ccncc3n2Cc2ccccc2C)cc1 | 1.41%
Cc1ccccc1Cn1c(C)cc(C)c(C#N)c1=O | -0.406%
Cc1ccc(OCC(=O)O/N=C(\N)c2cccnc2)c(Br)c1 | 1.84%
O=c1c2ccccc2nc(CN2CCN(c3ccccn3)CC2)n1-c1ccc(F)cc1 | 0.245%
Cc1cc(C)n(-c2nc3ccccc3nc2NCCc2ccc(Cl)cc2)n1 | 0.166%
Cc1nn(CC(=O)NC(C)C)c(=O)c2cc3occc3n12 | -2%
COc1ccc(-c2cn3c(n2)sc2cc(C(=O)NC(C)c4ccc5c(c4)OCCO5)ccc23)cc1 (centres unmarked) | 5.11%
Cc1cccc(OCC(=O)Nc2cc(C)c(C)cc2O)c1 | -3.13%
CCn1cc(C2=NOC(C(=O)Nc3cc(C)nn3-c3ccccc3)C2)c(C)n1 (centres unmarked) | -1.37%
N#CC1=C(SCC(=O)Nc2ccccc2)NC(=O)CC1c1ccc(F)cc1 (centres unmarked) | 0.673%
O=C(C1CCCN(c2ncnc3c2nc2n3CCCCC2)C1)N1CCN(c2ncccn2)CC1 (centres unmarked) | -0.238%
Clc1ccc(OCCCCCCn2ccnc2)cc1 | -6.44%
Cc1cccnc1NC(=O)C1CCN(S(=O)(=O)c2c(C)noc2/C=C/c2cccs2)CC1 | -3.09%
CN(C)S(=O)(=O)c1ccc(C(=O)C2=C(O)C(=O)N(Cc3cccnc3)C2c2cccnc2)cc1 (centres unmarked) | -5.35%
CN1CCN(CC(O)Cn2cnc3c2c(=O)n(C)c(=O)n3C)CC1 (centres unmarked) | 2.24%
N#CCNC(=O)C(CC(=O)c1ccc(-c2ccc(Cl)cc2)cc1)CS(=O)(=O)Cc1ccccc1 (centres unmarked) | -5.21%
COc1ccccc1NC(=O)C1CC(=O)N(C)/C(=N/c2cccc(F)c2)S1 (centres unmarked) | 0.674%
Cc1cc(C)c(C#N)c(SCc2ccccc2)n1 | -0.305%
